Measured values as given in PubChem BioAssay AID686979 (National Center for Advancing Translational Sciences (NCATS), 2013).
Among all 420,000 compounds or so, about 50,000 (12%) were called active. Inconclusive results, whose numbers are uncertain, are shown with a selection of clear calls. Calls come from the whole dose curve; as a rule, active = well fitted inhibition curve with a large enough effect; inconclusive = small, poorly fitted or top-dose-only effect; inactive = flat fitted curve, though single readings scatter. No potency is given beside an inconclusive call; the fits are too rough.

test: qHTS for Inhibitors of human tyrosyl-DNA phosphodiesterase 1 (TDP1): qHTS in cells in presence of CPT; conditions: chicken DT40 Tdp1-/-;hTDP1 cells + 20 nM CPT, ATP luminescence, 48 h; activity change, negative = growth inhibition: at 46.2 µM (top of the series); note: nearly all actives have a fitted effect of over 55% in size
In short: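 Chicken DT40 Tdp1-/- cells complemented with human TDP1, 400 cells/well, exposed to compounds plus 20 nM camptothecin for at least 48 h at 37 C; viability read as ATP content by CellTiter-Glo luminescence.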
% is set by controls: 0 for no effect and ±100 for the full control effect; potency is the fitted concentration of half-maximal effect; tags give direction and shape of the fitted curve.

Row | SMILES | Potency | activity change, negative = growth inhibition
1 | O=C(Nc1cccc(S(=O)(=O)NCc2ccco2)c1)c1cc(-c2ccccc2)nc2ccccc12 | inconclusive [inhibitor, single point] | –
2 | CCCc1cc(=O)[nH]c(SCc2nc3ccc([N+](=O)[O-])cc3[nH]2)n1 | inconclusive [inhibitor, partial curve] | –
3 | Cc1nc2nc(SCC(=O)N(Cc3ccccc3)C(C)C)nn2c(C)c1Cc1ccccc1Cl | inconclusive [inhibitor, single point] | –
4 | CCOCCCNS(=O)(=O)c1ccc(NC(=O)Cc2c(F)cccc2Cl)cc1 | inactive | –
5 | CCCCN(CC)CCNC(=O)c1ccc2c(Cl)c3c(nc2c1)CCC3 | inconclusive [inhibitor, single point] | –
6 | O=C(N/N=C\C=C\c1ccc2c(c1)OCO2)C1COc2cc3ccccc3cc2O1 (centres undefined) | inactive | –
7 | COc1ccc(OC)c(NC(=O)CSc2nnc(CCCO)n2-c2ccccc2)c1 | inactive | –
8 | COc1ccc(C2CC(c3cccs3)=NN2C(=O)CCC(=O)O)cc1OC (centres undefined) | inactive | –
9 | Cc1ccc(C(C)C)c(OCC(O)CN(C)Cc2ccccc2)c1 (centres undefined) | active: 23.1 µM | –
10 | CSc1ccc(CCNc2ncnc3onc(-c4ccc(Cl)cc4)c23)cc1 | active: 16.4 µM | –
11 | CC(C(=O)Nc1ccc(N2CCOCC2)cc1)N1C(=O)c2ccccc2C1=O (centres undefined) | inactive | –
12 | CC(C)Nc1ncnc2c1ncn2[C@H]1CN(C2CCCC2)C[C@@H](CO)O1 | inactive | –
13 | Cc1cc(C)c2sc(N3CCN(C(=O)C4CC4)CC3)nc2c1 | active: 29.1 µM | –
14 | CN(CC(=O)NC(=O)NC1CCCCC1)CC(=O)Nc1ccc(Cl)cc1 | inconclusive [inhibitor, single point] | –
15 | O=C(N1CCCC1)C12CC3CC(CC(C3)C1)C2 | inactive | –
16 | O=C(NC1CCCCCC1)C1Cc2ccccc2CN1C(=O)c1ccco1 (centres undefined) | inactive | –
17 | O=C(NCCc1ccc(O)c(O)c1)C1COc2ccccc2O1 (centres undefined) | active: 13 µM | –
18 | COc1cc(CCC(=O)N2CCN(c3ccc([N+](=O)[O-])cc3)CC2)cc(OC)c1OC | inconclusive [inhibitor, single point] | –
19 | Oc1ccc2oc3c(c2c1C=NCc1ccncc1)CCCC3 | inactive | –
20 | Cc1cccc(C)c1-n1nnnc1C1c2ccccc2C(=O)N1CCC(C)C (centres undefined) | inconclusive [inhibitor, single point] | –
21 | CC(C)Cn1c(SCC(=O)NC2CCCc3ccccc32)nc(O)cc1=O (centres undefined) | inactive | –
22 | Cc1c(CCO)sc[n+]1CC(=O)c1ccccc1 | active: 0.562 µM | –
23 | CN(C)N1C(N)=C(C#N)C(c2ccc(Br)cc2)C2=C1CCCC2=O (centres undefined) | inactive | –
24 | COc1ccc(Oc2nc3c(C)cccn3c(=O)c2/C=C(\C#N)c2nc3ccccc3[nH]2)cc1 | inconclusive [inhibitor, single point] | –
25 | CCn1c2ccccc2c2cc(NC(=O)COc3ccc(OC)cc3)ccc21 | inconclusive [inhibitor, single point] | –

Row | SMILES | Potency | activity change, negative = growth inhibition
26 | CCc1ccc2ncc3c(-c4ccc(C)cc4)nn(CC(=O)Nc4ccc(C)cc4)c3c2c1 | inactive | –
27 | COc1cccc(CC(=O)Nc2cc(C(F)(F)F)ccc2N2CCCC2)c1 | inconclusive [inhibitor, single point] | –
28 | CCOC(=O)[C@]12CCC=C1N(Cc1ccc(Cl)cc1Cl)C(=O)[C@H](CC(=O)N1CCN(C(=O)c3ccco3)CC1)C2 | active: 16.4 µM | –
29 | O=C(O)c1ccc2c(ccc3nn(-c4ccc(/C=C/c5ccc(-n6nc7ccc8cc(C(=O)O)ccc8c7n6)cc5[S+](=O)([O-])[O-])c([S+](=O)([O-])[O-])c4)nc32)c1 | inactive | –
30 | CN(CC(=O)Nc1ccc(F)cc1Cl)Cc1cccs1 | inactive | –
31 | COc1ccc2[nH]c(-c3ccc(C)cc3)cc(=O)c2c1 | active: 13 µM | –
32 | Cc1cc(NC(=O)CSc2nc(-c3ccc(F)cc3)cs2)no1 | inactive | –
33 | Cc1cccc(C(=O)NNC(=O)c2ccco2)c1 | inactive | –
34 | Oc1ccc2ccccc2c1/C=N/c1nc2c(s1)CCCC2 | inconclusive [inhibitor, partial curve] | –
35 | COc1ccc(Cl)cc1N(C)C(=O)CCNC(=O)Cn1cnc2ccccc2c1=O | inconclusive [inhibitor, partial curve] | –
36 | O=C(CSc1nnc([C@@H]2CCCN2)o1)c1ccc(Cl)cc1 | inconclusive [inhibitor, full curve] | –
37 | Cc1ccc(S(=O)(=O)c2c(C)cc(C)[nH]c2=O)cc1 | inactive | –
38 | Cc1ccc2c(CN3CCN(c4ccccc4F)CC3)cc(=O)oc2c1 | inconclusive [inhibitor, single point] | –
39 | Cc1csc(NC(=O)C2CCCCC2C(=O)O)n1 (centres undefined) | inactive | –
40 | CCOC(=O)CSc1nc2sc(C)c(C)c2c(=O)n1C | inconclusive [inhibitor, partial curve] | –
41 | Cc1cc(NC(=O)CC(C)C)c(=O)n(Cc2ccccc2F)c1 | – | inconclusive: -34.3% [inhibitor]
42 | Cc1ccc(NC(=O)C(C)OC(=O)/C=C/c2ccccc2)cc1S(=O)(=O)N1CCOCC1 (centres undefined) | inconclusive [inhibitor, single point] | –
43 | Cc1ccc(NC2=NC3(CCCCC3)N=C(N)N2)c(C)c1 | active: 23.1 µM | –
44 | COc1ccc(C(=O)c2sc(Nc3cc(Cl)ccc3C)nc2N)cc1OC | inconclusive [inhibitor, partial curve] | –
45 | CCCNCc1cc(OCC)c(OCC(=O)Nc2ccccc2)cc1Br | inconclusive [inhibitor, partial curve, poor fit] | –
46 | COc1ccc(CCNC(=O)c2cccc([N+](=O)[O-])c2)cc1OC | inconclusive [inhibitor, partial curve] | –
47 | COC(=O)c1cc2occc2n1Cc1nc(-c2cccc(Br)c2)oc1C | inactive | –
48 | COc1ccc([C@H]2/C=C\CN(Cc3ccc(N(C)C)cc3)[C@@H](C)C(=O)N2Cc2ccc(F)cc2)cc1 | inconclusive [inhibitor, single point] | –
49 | c1ccc(-n2ncc3c(N4CCN(CCOc5cccc6ccccc56)CC4)ncnc32)cc1 | active: 16.4 µM | –
